# From the RNAGym collection of RNA variant scans (doi:10.7554/elife.90254)
# Read counts are not given, so values of variants with three or more changes are uncertain.
# B1: OR4K15 (parent)
# chain: GUUAACGGUCAUAGGCCAUGGAAACUAGGAGCACCAUUUCGCUGCCAGUGAAGAAAUGAACAAAGAAAAUCUGGGCCAGGCAGGCAUCAAAAGAAAUAGUCUUGCGCUCAACCAGAAAGUCUGUAAUCAUUUUAAGGGUA
# Variants of: B1
# Experiment: self-cleavage, relative activity (ratio to wild type); higher = more cleavage; in vitro, sequencing; the parent is a self-cleaving ribozyme
row,Variant,self-cleavage
1,GUUAACGGUCAUAGGCCAUGGAAACUAGGAGCACCAUUUCGCUGCCAGUGAAGAAAUGAACAAAGAAAAUCUGGGCCAGGCAGGCAUCAAAAGAAAUAGUCUUGCGCUUAACCAGAAAGUCCGUAACCAUUUUAAGGGUA,0.29
2,GUUAACGGUCAUAGGCCAUGGAAACUAGGAGCACCAUUUCGCUGCCAGUGAAGAAAUGAACCAAGAAAACCUGGGCCAGGCAGGCAUCAAAAGGAAUAGUCUUGCGCUCAACCAGAAAGUCUGUAAUCAUUUUAAGGGUA,1.5
3,GUUAACGGUCAUAGGCCAUGGAAAUUAGGAGCACCAUUUCGCUGCCAGUGAAGAAAUGAACAAAGAAAAUCUGGGCCAGGCAGGCAUCAAAGGAAAUAGUCUUGCGCUCAACCAGAAAGUCUGUAAUCAUCUUAAGGGUA,1.11
4,GUUAACGGUCAUAGGCCAUGGAAACUAGGAGCACCAUCUCGCUGCCAGCGAAGAAAUGAACAAAGAAAAUCUGGGCCAGGCAGGCACCAAAAGAAAUAGUCUUGCGCUCAACCAGAAAGUCUGCAAUCAUUUUAAGGGUA,1.31
5,GUCAACGGUCAUAGGCCUUGGAAACUAGAAGCACCAUUUCGCUGCCAGUGAAGAAAUGAACAGAGAAAAUCUGGGCCAGGCAGGCACCAAAAGAAAUAGUCUUGCGCUCAACCAGAAAGUCUGUAAUCAUUUUAAGGGUA,0.54
6,GUUAACGGCCAUAGGCCAUGGAAACUAGGAGCACCAAUUCGCUGCCAAUGGAGAAAUGAACAAAGAAAAUCUGGGCCAGGCAGGCAUCAAAAGAAAUAGUCUUGCGCUCAACCAGAAAGUCUGUAAUCAUCUUAAGGGUA,0.82
7,GUUAACGGUCAUAGGCCAUGGAAACUAGGAGCACCAUUUCGCUGCCAGUGAAGACAUGAACAAAGAAAAUCUGGGCCAGGCAGGCAUCAAAAGAAAUAUUCUUGCGCUCAACCAGAAGGUCUGUAAUCAUUUUAAGGGUA,0.53
8,GUUAACGGUCUUAGGCCAUGGACACUAGGAGCACCAUUUCGCUGCCAGUGUAGAAAUGAACAAAGAAAAUCUGGGCCAGGCAGGCAUCAAAAGAAAUAGUCUUGCGCUCAACCAGAAAGUCUGUAAUCAUUUUAAGGGUA,1.1
9,GUUAACGGUCAUAGGCCACGGAAACUAGGAGCACCAUUUCGCUGCCAGUGAAGAGAUGAACAAAGAAGAUCAGGGCCAGGCAGGCAUCAAAAGGAGUAGUCUUGCGCUCGACCAGAAUGUCUGUAAUCAUUUUAAGGGUA,0.02
10,GUUAACGGUCAUAGGCCAUGGAAACUAGGAGCACCAUUUCGCUGCCAAUGAAGCAAUGAACGAAGAAAAUCUGGGCCAGGCAGGCAUCAAAAGAAAUAGUCUUGCGCUCGACCAGAAAGUCUGUAUUCAUUUUAAGGGUA,0.06
11,GUUAACGGUCAUAGGCCAUGGAAACUAGGAGCACCAUUUCGCUGCCAGUGAAGAAGUGAACAAAGAAAAUCUGGGCCAGGCAGGCAUCAAGAGAAAUAGUCUUGCGCUCAACCAGAAGGUCUGUAAUCAUUUUAAGGGUA,1.17
12,GUUAACGGUCAUAGGCCAUGGAAGCUAGGAGCACCAUUUCGCUGCCAGUGAAGAAAUGAACAAAGAAAAUCUGGGCCAGGCAGGCCUCAAAAGCAAUAGUCUUGCGCUCAACCAAAAAGUCUGUAAUCAUUUUAAGGGUA,0.07
13,GUUAACGGUCAUAGGCCAUGGAAACUAGGAGUACCAUUUCGCUGCCAGCGGAGAAAUGAACAAAGAAAAUCUGGGCCAGGCUGGCAUCAAAAGAAAUAGUCUUGCGCUCAACCAGAAAGUCUGUGAUCAUUUUAAGGGUA,0.05
14,GUUAACGGUCAUAGGCCAUGGAAACUAGGAGCACGAUUUCGCUGCCAGCGAAGAAAUGAACAAGGAAAAUCUGGGCCAGGCAGGCUUCAAAAGAAAUAGUCUAGCGCUCAACCAGAAAGUCUGUAAUCUUUUUAAGGGUA,0.11
15,GUCAACGGUCAUAGGCCAUGGAAACUAGGAGCGCCAUUUCGCUGCCAGUGAAGAAAUGAACAAAGAAAAUCUGGGCCAGGCAGGCAUCAAAAGAAAUAGUCUUGCGCUCAACCAGAGAGUCUGUAAUCAUUUUAAGGGUA,1.38
16,GUUAACGGUCAUAGGCCAUGGAAACUAGGAGCACCAUUUCGCUGCCAGUGAAGAAAUGAACAAAGAAAAUCUGGGCCUGGCAGGCAUCAAAAGAAAUAGUCUUGCGCUCAACCAGAAAGUCUGUAAUCAGUUCAAGGGUA,0.17
17,GUUAACGGUCAUAGGCCAUGGAAACUAGGAGCACCAUUUCGCUGCCAGUGAAGAAGUGAACAAAGAAAAUCUGGGCCAAGCAGGCAUCAAAAGAAAUAGUCUUGCGCCCAACCAGAAAGUCUGUAAUCAUUUUAAGGGUA,0.01
18,GUUAACGGUCAUAGGCCAUGGAAACUAGGGGCACCAUUUCGCUGCCAGUGAAGAAAUGGACAAAGAAAAUCUGGGCCAGGCAGGCAUCAAAAGAAAUAGUCUUGCGCUCAGCCAGAAAGUCUGUAAUCAUUUUAAGGGUA,0
19,GUUAACGGUCAUAGGCCAUGGAAACUAGGAGCACCAUUUCGCUGCCAGCGAAGAAAUGAACAAAGAAAAUCUGGGACAGGCAGGCAUCAGAAGAAAUAGUCUUGCGCUCAACCAGAAAGUCUGUAAUCAUUUUAAGGGUA,0.09
20,GUUAACGGUCAUAGGCCAUGGAAACUAGGAGCACCAUUUCGCUGCCAGUGAAGAAAUGAACAAAGAAGAUCUGAGCCAGGCAGGCAUCAAAAGGAAUAGUCUUGCGCUCAACCAGAAAGUCCGUAAUCACUUUAAGGGUA,0.04
21,GCUAGCGGUCAUAGGCCAUGGAAACUAGGAGCACCAUUUCGCUGCCAGUGAAGAAAUGAACAAAGAAAAUCUGGGCCAGGCAGGCAUCAAAAGAAAAAGUCUUGCGCUCAACCAGAAAGUCUGUAAUCAUUUUAAGGGUA,1.31

row,Variant,self-cleavage
1,GUUAGCGGUCAUAGGCCAUGGAAACUAGGAGCACCAUUUCGCUGCCAGUGAAGAAAUGAACAAAGAAAAUCUGGGCCAGGCAGGCAUCAGAAGAAAUAGUCUUGCGCUCGACCAGAAAGUCUGUAAUCAUUUUAAGGGUA,0.34
2,GUUAACGGUCAUAGGCCAUGGAUACUAGGAGCACCAUUUCGCUGCCAGUGAAGAAAUGAACAAAGAAAACCUGGGCCAGGCAGGCAUCAAAAGGAAUAGUCUUGCGCUCAACCAGAAAGUCUGUAAUCCUUUCAAGGGUA,0.24
3,GUUAACGGUCAUAGGCCAUGGAAACUAGGAGCACCAUUUCGCUGCCAGUGAAGAAAUGAUCAAGGAAAAUCUGGGCCAGGCGGGCAUCAAAAGAAAUAGUCUUGCGCUCAACCAGAAGGUCCGUAAUCAUCUUAAGGGUA,0.21
4,GUUAGCGGUCAUAGGCCAUGGAGGCUAGGAGCACCAUUUCGCUGCCAGUGAAGAAAUGAACAAAGAAAAUCCGGGCCAGGCAGGCAUCAAAAGAAAUAGUCUUGCGCUCAACCAGAAAGUCUGUAAUCAUUUUAAGGGUA,0.33
5,GUUAACGGUCAUAGGCCAUGGAAACUAGGAGCACCAUUUCGCAGCCAGUGAAGGAAUGAACAAAGAAAAUCUGGGCCAGGCAGGCAUCAAAAGGAAUAGUCUUGCGCUCAACCAGAAAGUCUGUAAUCAUUUUAAGGGUA,2.44
6,GUUAACGGUCAUAGGCCACGGAAACUAGGAGCACCAUUUCGCCGCCAGUGAAGAAAUGAACAAAGAAAAUCUGGGCCAGGCAGGCAUCAAAAGAAAUAGUCUUGCGCUCAACCAGAAAGUCUGUAAUCAUUUUAAGGGUG,1.55
7,GUUAACGGUCAUAGGCCAUGGAAACUAGGAGCACCACUUCGCUGCCAGUGAAGAAAUGAACAGAGAAAAUCUGGGCCAGGCUGGCAUCAAAAGGGAUAGUCUUGCGCUCAACCAGAAAGUCUGUAAUCAUUUUAAGGGUA,0.4
8,GUUAGCGGUCAUAGGCCAUGGAAACUAGGAGCACCAUUUCGCUGCCCGUGAAGAAAUGAACAAAGAAAAUCUGGGCCAGGCAGGCAUCAAAAGAAAUAGUCUUGCGCUCAACCAGAAAGUCUGUAAUCUUUUUAAGGGUA,1.12
9,GUUAGCGGACAUGGGCCAUGGAAACUAGGAGCACCAUUUCGCUGCCAGUGAAGAAAUGAACAAAGAAAAUCUGGGCCAGGCAGGCAUCAAAAGAAAUAGACUUGCGCUCAACCAGAAAGUCUGUAAUCAUUUUAAGGGUA,1.5
10,GUUAACGGUCAUAGGCCAUGGAGACUAGGAGCACCAUUUCACUGCCAGUGAAGAAGUGAGCAAAGAAAAUCUGGGCCAGGCAGGCAUCAAAAGAAAUAGUCUUGCGCUCAGCCAGAAAGUCUGUAAUCAUUUUAAGGGUA,0.01
11,GUUAACGGUCAUAGGCCAUGGAAACUAGGAGCACCAUUUCGCUGCCAGUGAAGAAAUGAACAAAGAAAGUCUGGGCCAGGCAGGCACCAAAAGAAAUAGUCUUGCGCCCAACCAGAAAGUCUGUAAUCAUUUUAAGGGUA,0.05
12,GUUAACGGUCAUAGGCCAUGGAAACUAGGAGCACCACUUCGCUGCCAGUGAAGAAAUGAACAGAGAAAAUCUGGGCCAGGCAGGCAUCAAAAGAAAUAGUCUUGCGCUCAACCAGGAAGUCUGUAAUCAUUUUAAGGGUA,1.39
13,GUUAACGGUCAUAGGCCAUGGAAACUAGGAGCACCAUUUCGCUGCCAGUGAAGAAAUGAACUAAGAACAUCUGGGCCAGGCAGGCAUCAAAAGGAAUAGUCUUGCGCUCAACCAGAAAGUCUGUAAUCAUUUUAAGGGUA,1.05
14,GUUAACGAUCAUAGGCCAUGGAAACUAGGAGCACCAUUUCGCUGCCAGUGAAGAAAUGAACAAAGAAAAUCUGGGCCAGGCAGGCUUCAAAAGAAAAAGUCUUGCGCUUAACCAGAAAGUCUGUAAUCAUUUUAAGGGUA,1.74
15,GUUAACGGUCAUAGGCCAUGGAAACUAGGAGCACCAUUUCGCUGCCAGUGAUGAAAUGAACAAAGAAAAUCUGGGCCAGGCAGGCAUCUAAAGAAAUAGUCUUGCGCUCAACCAGAAAGUCUGUAAUCAUUUUAAGGGUG,1.91
16,GUUAACGGUCAUAGGCCAUGGAAACUAGGAGCACCAUUUCGCUGCCAGUGAAGAAAUGGACAAAGAAAAUCUGGGCCAGGCAGGCAUCAAAAGAAAAAGUCUUGCGCUCAACCAGAAGGUCUGUAAUCAUUUUAAGGGUA,0.93
17,GUUAACGGUCAUAGGCCAUGGAAACUAGGAGCACCAUUUCGCUGCCAGUGAAGAAAAGAACAAAGAAAAUCUGGGCCAGGCAGGCAUCAAAAGAAAUAGUCUUGUGCUCAACCAGAAAGUCUGUGAUCAUUUUAAGGGUA,0.02
18,GUUAACGGUCAUAGGCCAAGGAAACUAGGAGCACCAUUUCGCUGCCAGUGAAGAAAUGAACAAAGAAAAUCUGGGCCAGGCAGGCAUCAAAAGAAAUAGUCUUGCGCCCAACCAGAAAGUCCGUAAUCAUUUUAAGGGUA,0
19,GUUAACGGUCAUAGGCCAUGGAAGCUAGGAGCACCAUUUCGCCGCCAGUGAAGAAAUGAACAAAGAAAAUCUGGGCCAGGCAGGCGUCAAAAGAAAUAGUCUUGCGCUCAACCAGAAAGUCUGUAAUCAUUUUAAGGGUA,1.16
20,GUUAACGGUCAUAGGCCAUGGAAACUAGGAGCACCAUUUCGCUGCCAGUGGAGAAAUGAACAAGGAAAAUCUGGGCCAGGCAGGCAUCAAAAGAAAUAGUCUUGCGCUCAACCAGAAAGUCUGUAGUCAUUUUAAGGGUA,1.17
